Experimental data as given in US20240190950A1, “METHOD OF TREATING DISEASES USING GREMLIN1 ANTAGONISTS” (SHANGHAI JIAO TONG UNIVERSITY, priority 2021, published 2024).

Assays:
[1] = tested on: PC-3 cells; test: Scratch migration assay of PC-3 cells; assay type: cell-based, human; settings: 10 μg/ml 14E3, 3 days
Experimental: PC-3 cells at log-growth phase were harvested and re-suspended in cell culture medium (DMEM medium supplied with 10% FBS). Cells were non-treated or treated with 1 μg/ml Gremlin or 10 μg/ml 14E3 or 10 μg/ml control mIgG2a for 3 days. Then cells were planted at 10^5 cells/well in 6-well cell culture plate. After cells reached 100% coverage of the bottom of wells, the medium was changed to serum free medium. Each well was made with one scratch using 200 μl-tip. The migration rate of cells were analyzed by calculating the area of cells growing on the scratch using Image J software.

[2] = Body weight in PCa metastasis mouse model; assay type: in vivo; settings: BALB/C nude mice; i.p. 10 mg/kg twice a week for three weeks
Experimental: (§1) To evaluate the effect of gremlin1 antibody on prostate cancer metastases in the lung. PC3 cells (ATCC) were transfected with plasmid constitutively expressing luciferase. PC3-luc cells were collected from logarithmic phase of growth and suspended with 1×10^6 cells in 80 ml basic media (DMEM). The cell suspension was then injected intracardiacally into BALB/C nude mice's heart ventricles (Shanghai SLAC Laboratory Animal). Gremlin1 hybridoma antibody 14E3 or isotype control was given intraperitoneally twice a week for three weeks at a dose of 10 mg/kg. Every two days, the body weight was measured. Mice were anesthetized and administered with D-luciferein (ThermoFisher, L2916) at 15 mg/kg for 5 mins. The Images were captured by the in vivo imaging system (Caliper IVIS bioluminescence system, Caliper LifeScience. USA).

[3] = tested on: PC3 tumor; test: PC3 CRPC model with castration; assay type: in vivo; settings: castrated Balb/c nude mice; i.p. 10 mg/kg twice a week; vs mouse IgG2a
Experimental: Tumor growth inhibition activity of 14E3 in PC3 CRPC model with castration was studied. Briefly, PC3 cells were subcutaneously implanted into Balb/c nude mice at 1×10^6 cells per mouse and then mice were treated with castration surgery to make CRPC (castration-resistant prostate cancer) model. When tumor volume grew to 100 mm^3 (Day 20), mice were treated with either isotype control mouse IgG2a or 14E3 hybridoma antibody (mlgG2a). Each group had 8 mice and antibodies were given intraperitoneally (i.p.) at 10 mg/kg twice a week. Tumor volume was measured twice a week in two dimensions using a caliper (INSIZE).

[4] = target: T1, hGREM1 (Homo sapiens, UniProt O60565); test: ELISA affinity and specificity of 14E3; assay type: binding
T1 sequence (O60565 25-184): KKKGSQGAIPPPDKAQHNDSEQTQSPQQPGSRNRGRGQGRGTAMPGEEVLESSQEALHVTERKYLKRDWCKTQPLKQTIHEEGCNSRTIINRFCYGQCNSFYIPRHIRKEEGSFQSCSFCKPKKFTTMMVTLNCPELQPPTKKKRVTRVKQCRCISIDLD
Experimental: (§2) 14E3 was tested to target GREM1 in human PCa. The affinity and specificity of this antibody to hGREM1 was verified by ELISA (FIG. 12A). […] This antibody potentiated the anti-tumor effect of Enzalutamide in AR dependent LNCaP cells (FIG. 12B, 12C, 10K, 10L).

[5] = tested on: patient derived organoids (PDOs); test: Patient derived organoids (PDOs) from CRPC patients; assay type: cell-based, human; settings: PDOs from nine CRPC patients; to different degree
Experimental: We then tested whether the anti-GREM1 antibody display suppressive effect on patient derived organoids (PDOs). The PDOs were freshly collected from PCa patients at Ren Ji Hospital. Briefly tumor tissues from nine CRPC patients were harvested from surgery and cut into 1-5 mm3 and washed once with HBSS, the tissues was then digested to single cell suspension using CollagenaseII+10 μM Y-27632 at 37° ° C. for 4 hours, followed by neutralization of digestion using base culture medium. After that the tumor tissue was further digested using 1 ml TrypLE+10 μM Y-27632 for 15 minutes at 37° C. followed by neutralization using medium with 10% FBS. The resulting cells were resuspended in 50% matrigel+50% medium and 50 ul of the cell suspension was dispensed into each well of the 96-well plate. Afterward the prewarmed PDO medium (B27, N acetylcysteine, EGF, Noggin, R-sponsdin 1, A83-1, FGF10, FGF2, Prostaglandin E2, Nicotinamide, SB202190, DHT and Y27632) was added to the culture and fresh medium was added every 2-3 days.

[6] = tested on: PC3 xenograft; test: PC3 xenograft in nude mice, serial passage; assay type: in vivo
Experimental: To test the effect of 14E3 in CRPC in vivo, nude mice bearing the CRPC cell line PC3 xenograft were injected intraperitoneally with anti-GREM1 antibody or IgG2a three times a week for 2 weeks (10 mg/kg body weight).

[7] = tested on: BMPRII knockout LNCaP cells; test: Effect of 14E3 on BMPRII knockout PCa cells; assay type: cell-based, human; settings: BMPRII knockout by CRISP/Cas9; LNCaP cell proliferation and sphere formation
[8] = tested on: LNCaP cells; test: Sphere formation, proliferation and apoptosis of LNCaP cells; assay type: cell-based, human
Experimental: as §2
14E3 was tested to target GREM1 in LNCaP PCa cells.

[9] = tested on: LNCaP-PSA cells; test: LNCaP-PSA reporter cell assay (PSA-low population, flow cytometry); assay type: cell-based; settings: 1 ug/ml human gremlin with serially diluted antibody; dose-dependent; day 7
Source text: In order to assess the role of gremlin1 in modulating tumor prostate cell growth, we tested the antibodies provided herein in an assay involving prostate cancer cell LNCaP. This cell line was transfected with a PSA promoter driven GFP expression lentivirus plasmid. PSA is known as a differentiated marker of prostate cell and prostate cancer cells with low level of PSA represent poorly differentiated or undifferentiated prostate cancer cells. These cells usually have stem cell like property and have more aggressive growth property. The LNCaP reporter cell assay is briefly described below.
LNCaP-PSA cells were plated in 24-well plates at 10000/well in RPMI 1640/10% FBS (GIBCO), 1% P/S (complete media) and incubated at 37° ° C. and 5% CO2 overnight. The next day, remove media, 1 ug/ml human gremlin (ACRO) or human gremlin with serially diluted antibodies were added to the cells. Change medium every three days. On day 7, remove media from the wells, wash with PBS twice, run flow cytometer (Bechman) using FITC channel.

[10] = tested on: FGFR1/MEK/ERK signaling pathway; test: FGFR1/MEK/ERK phosphorylation in PCa cell lines (immunoblotting); assay type: cell-based, human
Experimental: In order to test whether Gremlin1 promoted the FGFR-MAPK signaling, we first performed analysis of the expression levels of the four FGFRs in CRPC patients. […] We treated LNCaP and PC3 with GREM1 in different concentrations (1 ng/ml, 10 ng/ml, 100 ng/ml) and examined phosphorylation levels of FGFR1, MEK and ERK.
MAPK signaling can be activated through many membrane receptors besides FGFR. To test whether the activation of MAPK pathway by GREM1 was via FGFR, we constructed a FGFR1 knockout LNCaP subline by the CRISPR/Cas9 method. […] To further test whether the tumor promoting effect of GREM1 was through FGFR, we utilized small molecule inhibitors of FGFR or EGFR.
14E3 was tested to target GREM1 in human PCa.

[11] = tested on: PC3-luc cells; test: PC3-luc intracardiac injection PCa metastasis mouse model; assay type: in vivo; settings: BALB/C nude mice, i.p. 10 mg/kg twice a week for three weeks
Experimental: as §1

[12] = tested on: PC3 cells; test: Sphere formation, proliferation and apoptosis of PC3 cells; assay type: cell-based, human
Source text: Metastatic prostate cancer is a devastating disease and most cancers progress upon serial treatments with either androgen receptor antagonist or chemotherapy. One of the key cell types resistant to these treatments are cells with stem cells like property which has the capability of forming tumor spheres in suspension culture. To explore the role of GREM1 in the progression of CRPC, we utilized AR independent CRPC cell line PC3, as well as the AR dependent PCa cell line LNCaP and LAPC4. We generated cell sublines with loss or gain of GREM1 expression (FIGS. 3A, 4A and 5A).
as §2

B1: 14E3: mouse antibody having a heavy chain variable region of SEQ ID NO: 7, and a light chain variable region of SEQ ID NO: 8 (antibody, V domains shown)
VH: QIQLVQSGPELKKPGETVKISCKTSGSTFTTYGMAWMKQAPGKGLTWMGWINTLSGEPTYADDFKGRFAFSLKTSANTAYLQINNLKNEDAATYFCAREPMDYWGQGTSVIVSS
VL: DVVMTQTPLTLSITIGQPASISCKSSQSLLDSDGKTYLSWLLQRPDQSPKRLISLVSKLDSGVPDRITGSGSGTDFTLKISRVEAEDLGIYYCWQGAHFPLTFGAGTKLELK
In the case of B1, the “GREM1 mediated acceleration of tumor cell migration” value [1] is reported as “reduced such acceleration”, the bodyweight [2] is reported as “without influencing” and the “growth of PC3 tumor (tumor volume)” value [3] is reported as “reduced”. The “survival of mice bearing the tumor” value [3] was “prolonged”, the “affinity and specificity to hGREM1” value [4] was “verified” and the “number of PDOs with reduced organoid growth” value [5] was 7 out of the 9. The “PC3 xenograft tumor growth” value ([6]; i.p. 10 mg/kg three times a week for 2 weeks, vs IgG2a) was “greatly prohibited”, the “tumor inhibition during secondary tumor passages” value ([6]; i.p. 10 mg/kg, serial passage) was “more pronounced” and the “inhibitory effect of 14E3 on PCa cells after BMPRII knockout” value [7] was “did not abrogate”. The “anti-tumor effect of Enzalutamide in combination with the antibody” value ([8]; AR dependent LNCaP cells, antibody 100 ng/ml with enzalutamide) was “potentiated”, the “combination with enzalutamide on tumor inhibition (cell death, Annexin-V/DAPI staining)” value ([8]; FIGS. 14D and 10N, combination with enzalutamide) was “synergistic effects” and the apoptosis ([8]; LNCaP cells) was “induced”. The proliferation ([8]; LNCaP cells) was “inhibitory impact”, the sphere formation ([8]; LNCaP cells) was “inhibitory impact” and the “gremlin-mediated increase in PSA-low LNCAP population” value [9] was “neutralized”. For the same molecule, the “inhibition of FGFR1/MEK/ERK signaling pathway” value ([10]; LNCaP cells (FIG. 14C)) was “dose-dependent inhibition”, the “inhibition of FGFR1/MEK/ERK signaling pathway” value ([10]; PC3 and LNCaP cells) was “dose-dependent inhibition” and the “formation of PCa metastases in the lung (micrometastases)” value [11] was “potently reduce”. The average radiance intensity ([11]; vs isotype control) was “obvious inhibition”, the apoptosis [12] was “induced” and the proliferation ([12]; antibody 10 μg/ml) was “inhibitory impact”. For the same molecule, the sphere formation ([12]; antibody 10 μg/ml) was “inhibitory impact”.
